About 200 (0.44%) of roughly 45,000 compounds were called active. Roughly 7% stayed inconclusive and do not appear here. Calls follow the shape of the dose curve; as a rule, active = well fitted activation curve with a large enough effect; inconclusive = small, poorly fitted or top-dose-only effect; inactive = no such curve, though single readings can be large or run the other way. This is one part of the list.

The nature of this assay: qHTS of TDP-43 Inhibitors: NCGC Sytravon Library Screen. Also: 0% is about no effect; nearly all actives have a fitted effect of over 55% in size. The conditions noted are these: yeast TDP-43 toxicity rescue, BacTiter-Glo growth, 24 h; series mostly up to 46.1 µM; growth rescue (activation): at the top concentration. In a few lines: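 TDP-43-expressing yeast, pregrown in raffinose, seeded at OD600 0.02 in galactose medium with compound for 24 hr at 30 deg C. Growth read by BacTiter-Glo luminescence, so rescue of toxicity appears as activation.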
(In qHTS, concentration-response curves come from the screen itself.)
With `O=C(Nc1ccccc1)Nc1nnc(CSCc2ccccc2Cl)s1`, the “growth rescue (activation)” value was inactive: 4.67%.
In the case of `CCc1cccc(CC)c1NC(=O)C1CN(S(=O)(=O)c2ccccc2)CCN1S(=O)(=O)c1ccccc1` (stereo not drawn) it was inactive: 18%; in that of `CCCn1c(N)c(N(CCOC)C(=O)c2ccccc2)c(=O)[nH]c1=O`, inactive: -1.35%.
`Cc1cc(C)nc(N2CCCC(C(=O)NNC(=O)c3ccncc3)C2)n1` (stereo not drawn): the “growth rescue (activation)” value was inactive: 3.28%.
In the case of `O=C1c2ccccc2C(=O)N1CCCCCc1nc(-c2ccccc2)no1` it was inactive: 11.9%; in that of `CCn1cc(C(=O)NCc2ccco2)c(=O)c2cc(S(=O)(=O)N3CCCC3)ccc21`, inactive: 13.5%.
Take `O=C(c1cc(-c2ccccc2O)on1)N1CCOCC1`: the “growth rescue (activation)” value is inactive: -4.62%.
As for `CCOc1ccc(-c2cc(C(=O)NCc3ccc(C(F)(F)F)cc3)[nH]n2)c(C)c1`, the “growth rescue (activation)” value is inactive: 18.1%.
In the case of `COc1ccccc1CN(C)C(=O)CNC(=O)c1cccc(Cl)c1` it was inactive: 15%.
Turning to `Cc1ccc(CN2CCN(/N=C/c3ccc(C(F)(F)F)cc3)CC2)cc1`, the “growth rescue (activation)” value was inactive: 6.38%.
For `COc1ccc(CCNC(=O)CC2SC(N)=NC2=O)cc1OC` (stereo not drawn), the “growth rescue (activation)” value is inactive: 13.6%.
In the case of `Cc1ccc(C)c(OCCC(=O)OCC(=O)NC(=O)NC2CCCCC2)c1` it was inactive: 3.18%; in that of `O=C(NCC1(c2ccccc2)CCCC1)c1ccc(Br)cc1`, inactive: 6.48%; in that of `CCOc1ccc(S(=O)(=O)N2CCC(C(=O)NCC3CCCO3)CC2)cc1Cl` (stereo not drawn), inactive: -0.292%.
`CCc1sc(C(=O)Nc2ncccc2C)cc1C`: the “growth rescue (activation)” value was inactive: 18.9%.
In the case of `N=C(c1ccc([N+](=O)[O-])cc1)N1CCCCCC1` it was inactive: 10.1%.
In the case of `Cc1ccc(C)c(NC(=O)c2ccc[n+](Cc3ccc([N+](=O)[O-])cc3)c2)c1` it was inactive: -0.0209%.
In the case of `OCCC1CN(Cc2cccn2-c2cccnc2)CCN1C1CCCCC1` (stereo not drawn) it was inactive: 8.5%.
As to `N#Cc1c(N2CCOCC2)nc(N)c2c(N)nc3c(c12)CC(CCl)O3` (stereo not drawn), the “growth rescue (activation)” value is inactive: -74.7%.
In the case of `NC(=O)C1CCN(C(=O)CN(c2ccc3c(c2)OCCO3)S(=O)(=O)c2ccccc2)CC1` it was inactive: -18.3%; in that of `Cc1nc2c(OCc3cccc(Cl)c3)cccn2c1N(C)CC1CC1`, inactive: 7.14%; in that of `COc1ccc(OC)c(NC(=O)COC(=O)COc2ccc(Nc3ccccc3)cc2)c1`, inactive: 9.51%.
Take `CCCS(=O)(=O)NC(=O)C1(C)CCN(C(=O)COc2ccc(Cl)cc2Cl)C1` (stereo not drawn): the “growth rescue (activation)” value was inactive: -11.7%.
In the case of `Cc1nnc(-c2ccc(Oc3ccc(Cl)cc3)c([N+](=O)[O-])c2)o1` it was inactive: 19.2%; in that of `CCN(CC)C(=O)Oc1ccc2c(c1)O/C(=C\c1ccco1)C2=O`, inactive: 3.27%.
In the case of `O=C(CNC(=O)c1ccc(F)cc1)NCc1ccc(S(=O)(=O)N2CCOCC2)cc1` it was inactive: 20.8%; in that of `Cc1ccc(S(=O)(=O)N2CC(C)C(=O)CC2C)cc1` (stereo not drawn), inactive: 3.12%; in that of `CNC(=O)NC(=O)COC(=O)CCc1nc(=O)c2ccccc2n1C`, inactive: -6.17%.
For the molecule `CC1CCCCC1NC(=O)CN1CCN(Cc2ccccc2Cl)C1=O` (stereo not drawn), the “growth rescue (activation)” value was inactive: -1.76%.
In the case of `Cc1c(C(=O)N(Cc2ccc(N(C)C)cc2)Cc2ccco2)oc2cc(Br)ccc12` it was inactive: 5.26%; in that of `C=CCC1(NC(C)c2ccccc2)CCCCC1` (stereo not drawn), inactive: -30.4%; in that of `CN(CC(=O)O)S(=O)(=O)/C=C/c1ccccc1`, inactive: -23.4%.
In the case of `Cc1ccc(OCC(=O)Nc2ccc3oc(=O)ccc3c2)cc1C` it was inactive: 6.27%; in that of `COc1cc(/C=N/NC(=O)Cc2nnc(NC(=O)c3ccccc3)s2)ccc1O`, inactive: 6.38%; in that of `Cc1ccc(OCC(=O)NS(=O)(=O)c2ccccc2)cc1`, inactive: 27.9%.
In the case of `CCOC(=O)C1=NNC2(c3ccc(C)cc3)C(=O)N(c3ccc(Cl)cc3)C(=O)C12` (stereo not drawn) it was inactive: 16.3%.
For `CN(C)C(=S)Nn1c(-c2ccccc2)nc2ccccc2c1=O`, the “growth rescue (activation)” value was inactive: -14.7%.
For `CN1CCN(C(=O)CCCN2C(=O)/C(=C/c3cccc(Br)c3)SC2=S)CC1`, the “growth rescue (activation)” value is inactive: -26.2%.
As for `CN(C)S(=O)(=O)c1cccc(NC(=S)NC2CCCCC2)c1`, the “growth rescue (activation)” value is inactive: 3.95%.
For `COC(=O)c1ccc(CSc2nnc(NC(C)C)s2)o1`, the “growth rescue (activation)” value is inactive: -7.74%.
In the case of `O=C(N/N=C1\CC(c2ccccc2)Oc2ccccc21)c1ccc(O)cc1` (stereo not drawn) it was inactive: 11.3%.
On to `COC(=O)NC(C)N1C(=O)C2C3C=CC(C3)C2C1=O` (stereo not drawn), for which the “growth rescue (activation)” value was inactive: 7.85%.
Consider `CCOc1ccc(-c2nnc(NC(=O)C3CCCC3)o2)cc1`, for which the “growth rescue (activation)” value was inactive: 35.2%.
In the case of `CCC1C(=O)NCCN1Cc1nc(-c2ccc(C)s2)oc1C` (stereo not drawn) it was inactive: -5.18%; in that of `C=CCN1C(=O)/C(=C/c2ccc(OC(C)=O)c(OCC)c2[N+](=O)[O-])SC1=S`, inactive: -2.45%.
In the case of `CN(C)C(=O)CNC(=O)CN1C(=O)NC2(CCCc3sccc32)C1=O` (stereo not drawn) it was inactive: 22.4%; in that of `CCc1nc2nc(C)c(NS(=O)(=O)c3ccc(CC(C)C)cc3)c(=O)n2[nH]1`, inactive: -16.3%.
`COCCn1c(SCc2ccc(OC)c(F)c2)nnc1-c1ccncc1`: the “growth rescue (activation)” value is inactive: -3.96%.
For `CN(CC(=O)Nc1ccccc1Cl)C(=O)CSc1ncc(C(F)(F)F)cc1Cl`, the “growth rescue (activation)” value was inactive: 29.3%.
In the case of `COc1ccc(CN2C(=O)NC3(CCCC3)C2=O)cc1F`, the “growth rescue (activation)” value was inactive: -4.86%.
For the molecule `COc1ccccc1N(C)S(=O)(=O)c1ccc(Cl)c(C(=O)NCc2ccco2)c1`, the “growth rescue (activation)” value is inactive: -7.8%.
In the case of `COc1ccc(NC(=O)CN2CCCCC2)cc1S(=O)(=O)N1CCCCC1` it was inactive: 5.49%.
On to `Cc1cc2c(c(N3CCOCC3)n1)C(=O)OC2`, for which the “growth rescue (activation)” value is inactive: 3.2%.

The values are drawn from PubChem BioAssay AID1347073 (National Center for Advancing Translational Sciences (NCATS), 2019).
